Measured values from ChEMBL document CHEMBL3745712, “Identification of N-(4-((1R,3S,5S)-3-Amino-5-methylcyclohexyl)pyridin-3-yl)-6-(2,6-difluorophenyl)-5-fluoropicolinamide (PIM447), a Potent and Selective Proviral Insertion Site of Moloney Murine Leukemia (PIM) 1, 2, and 3 Kinase Inhibitor in Clinical Trials for Hematological Malignancies” (J Med Chem, 2015).
In brackets after ≈: the same amount, converted by molar mass.

Experiments:
cells = format: cell-based, KMS11; settings: Homo sapiens, KMS-11, 1 h
in vitro [1] = settings: human, microsomes
in vitro [2] = settings: rat, microsomes
in vitro [3] = settings: rat, microsomes; remark: listed apart in the source
[4] = target: Serine/threonine-protein kinase pim-3 (Homo sapiens, UniProt Q86V86)
in vitro [5] = settings: human, microsomes; remark: listed apart in the source
[6] = target: Serine/threonine-protein kinase pim-1 (Homo sapiens, UniProt P11309)
[7] = target: Serine/threonine-protein kinase N1 (Homo sapiens, UniProt Q16512)
in vivo [8] = settings: mouse, po
in vivo [9] = settings: rat
physchem [10] = settings: octanol/water, pH 6.8
[11] = target: Glycogen synthase kinase-3 beta (Homo sapiens, UniProt P49841)
in vivo [12] = settings: mouse
in vivo [13] = settings: dog
physchem [14] = assay: physchem
[15] = target: Phosphatidylinositol 4,5-bisphosphate 3-kinase catalytic subunit alpha isoform (Homo sapiens, UniProt P42336)
[16] = target: Phosphatidylinositol 3-kinase catalytic subunit type 3 (Homo sapiens, UniProt Q8NEB9)
in vivo [17] = settings: rat, po
[18] = target: T1, Phosphatidylinositol 4,5-bisphosphate 3-kinase catalytic subunit delta isoform (Homo sapiens, UniProt O00329)
T1 sequence (O00329 whole entry): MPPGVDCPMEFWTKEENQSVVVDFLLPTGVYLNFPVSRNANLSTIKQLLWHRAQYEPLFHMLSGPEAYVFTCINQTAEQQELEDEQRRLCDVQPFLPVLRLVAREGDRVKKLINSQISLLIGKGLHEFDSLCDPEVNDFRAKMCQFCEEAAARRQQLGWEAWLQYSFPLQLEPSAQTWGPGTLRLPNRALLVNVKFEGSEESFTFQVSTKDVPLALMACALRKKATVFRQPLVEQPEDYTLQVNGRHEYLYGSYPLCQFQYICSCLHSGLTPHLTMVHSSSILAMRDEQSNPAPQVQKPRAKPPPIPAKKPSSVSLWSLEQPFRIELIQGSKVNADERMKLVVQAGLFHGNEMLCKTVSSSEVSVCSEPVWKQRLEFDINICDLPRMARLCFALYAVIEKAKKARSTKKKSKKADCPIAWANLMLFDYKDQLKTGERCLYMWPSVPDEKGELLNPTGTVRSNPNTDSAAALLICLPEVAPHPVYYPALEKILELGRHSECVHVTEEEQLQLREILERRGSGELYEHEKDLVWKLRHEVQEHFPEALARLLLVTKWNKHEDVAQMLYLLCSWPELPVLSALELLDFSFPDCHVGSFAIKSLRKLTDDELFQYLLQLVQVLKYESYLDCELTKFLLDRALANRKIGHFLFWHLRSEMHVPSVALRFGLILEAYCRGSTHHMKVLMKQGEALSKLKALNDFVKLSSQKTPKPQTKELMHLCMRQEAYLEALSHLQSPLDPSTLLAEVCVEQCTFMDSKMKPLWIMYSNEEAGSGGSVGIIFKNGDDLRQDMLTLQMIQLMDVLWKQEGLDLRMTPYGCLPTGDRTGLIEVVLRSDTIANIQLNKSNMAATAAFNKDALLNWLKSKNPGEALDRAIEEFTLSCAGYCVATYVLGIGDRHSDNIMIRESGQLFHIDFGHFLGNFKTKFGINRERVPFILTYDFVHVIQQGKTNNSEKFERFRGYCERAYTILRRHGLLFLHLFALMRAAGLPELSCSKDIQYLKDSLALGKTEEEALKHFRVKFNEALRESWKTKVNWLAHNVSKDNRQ

in vitro [19] = settings: human, plasma
in vivo [20] = settings: dog, po
[21] = target: Phosphatidylinositol 4,5-bisphosphate 3-kinase catalytic subunit beta isoform (Homo sapiens, UniProt P42338)
[22] = target: Protein kinase C theta type (Homo sapiens, UniProt Q04759)
physchem [23] = settings: buffer, pH 3
physchem [24] = settings: buffer, pH 1
[25] = target: Voltage-gated inwardly rectifying potassium channel KCNH2 (Homo sapiens, UniProt Q12809)
[26] = target: Serine/threonine-protein kinase mTOR (Homo sapiens, UniProt P42345)
in vivo [27] = settings: mouse, po; remark: listed apart in the source
[28] = target: Phosphatidylinositol 4-kinase beta (Homo sapiens, UniProt Q9UBF8)
[29] = target: Phosphatidylinositol 4,5-bisphosphate 3-kinase catalytic subunit gamma isoform (Homo sapiens, UniProt P48736)
physchem [30] = settings: buffer, pH 6.8

Chain of Serine/threonine-protein kinase N1 (Q16512 whole entry): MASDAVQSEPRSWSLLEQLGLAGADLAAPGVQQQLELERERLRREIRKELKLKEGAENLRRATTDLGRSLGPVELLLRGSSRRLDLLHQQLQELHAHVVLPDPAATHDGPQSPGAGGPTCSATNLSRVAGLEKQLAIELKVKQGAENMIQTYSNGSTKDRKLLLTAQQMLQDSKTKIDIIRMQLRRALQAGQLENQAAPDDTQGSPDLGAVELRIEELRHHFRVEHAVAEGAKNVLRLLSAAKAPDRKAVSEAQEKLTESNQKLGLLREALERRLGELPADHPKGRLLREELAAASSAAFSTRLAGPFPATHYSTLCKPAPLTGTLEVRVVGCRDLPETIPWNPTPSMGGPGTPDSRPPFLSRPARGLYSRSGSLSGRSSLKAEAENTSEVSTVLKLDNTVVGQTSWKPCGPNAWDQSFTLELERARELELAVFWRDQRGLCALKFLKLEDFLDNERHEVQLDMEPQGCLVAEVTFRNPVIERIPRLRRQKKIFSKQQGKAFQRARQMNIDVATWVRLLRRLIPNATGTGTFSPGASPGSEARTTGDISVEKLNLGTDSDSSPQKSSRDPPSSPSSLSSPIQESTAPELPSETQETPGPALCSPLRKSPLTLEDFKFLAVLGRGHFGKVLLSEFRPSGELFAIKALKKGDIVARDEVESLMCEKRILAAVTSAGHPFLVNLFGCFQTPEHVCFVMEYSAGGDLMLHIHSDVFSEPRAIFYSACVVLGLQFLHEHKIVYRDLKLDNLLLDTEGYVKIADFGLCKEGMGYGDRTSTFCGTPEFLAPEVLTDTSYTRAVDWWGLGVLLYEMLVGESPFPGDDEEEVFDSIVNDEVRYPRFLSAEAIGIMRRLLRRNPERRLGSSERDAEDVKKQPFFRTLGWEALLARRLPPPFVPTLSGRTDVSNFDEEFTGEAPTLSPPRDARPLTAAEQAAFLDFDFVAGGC
Chain of Phosphatidylinositol 3-kinase catalytic subunit type 3 (Q8NEB9 whole entry): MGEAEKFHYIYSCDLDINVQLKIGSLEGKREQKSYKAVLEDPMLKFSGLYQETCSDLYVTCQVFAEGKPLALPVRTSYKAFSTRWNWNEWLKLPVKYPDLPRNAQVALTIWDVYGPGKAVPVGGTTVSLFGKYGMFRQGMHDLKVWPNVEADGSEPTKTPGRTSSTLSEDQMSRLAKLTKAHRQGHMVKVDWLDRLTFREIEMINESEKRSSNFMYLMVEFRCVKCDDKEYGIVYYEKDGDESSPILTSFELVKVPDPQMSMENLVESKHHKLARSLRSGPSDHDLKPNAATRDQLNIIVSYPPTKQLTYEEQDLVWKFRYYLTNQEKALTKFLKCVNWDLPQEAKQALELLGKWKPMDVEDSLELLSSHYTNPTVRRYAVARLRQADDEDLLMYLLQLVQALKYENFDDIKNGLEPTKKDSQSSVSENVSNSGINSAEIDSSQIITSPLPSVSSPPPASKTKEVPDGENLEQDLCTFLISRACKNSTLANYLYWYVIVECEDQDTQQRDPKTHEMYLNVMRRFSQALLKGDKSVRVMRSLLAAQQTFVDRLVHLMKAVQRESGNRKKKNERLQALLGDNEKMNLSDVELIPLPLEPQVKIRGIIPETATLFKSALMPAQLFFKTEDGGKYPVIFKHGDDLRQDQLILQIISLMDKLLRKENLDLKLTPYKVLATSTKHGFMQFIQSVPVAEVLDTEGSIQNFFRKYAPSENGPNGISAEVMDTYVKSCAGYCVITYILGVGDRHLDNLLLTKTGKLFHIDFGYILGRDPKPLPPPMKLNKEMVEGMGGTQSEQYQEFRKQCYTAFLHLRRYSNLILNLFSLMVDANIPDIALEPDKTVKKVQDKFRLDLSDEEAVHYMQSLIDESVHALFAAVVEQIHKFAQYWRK
Chain of Serine/threonine-protein kinase pim-1 (P11309 whole entry): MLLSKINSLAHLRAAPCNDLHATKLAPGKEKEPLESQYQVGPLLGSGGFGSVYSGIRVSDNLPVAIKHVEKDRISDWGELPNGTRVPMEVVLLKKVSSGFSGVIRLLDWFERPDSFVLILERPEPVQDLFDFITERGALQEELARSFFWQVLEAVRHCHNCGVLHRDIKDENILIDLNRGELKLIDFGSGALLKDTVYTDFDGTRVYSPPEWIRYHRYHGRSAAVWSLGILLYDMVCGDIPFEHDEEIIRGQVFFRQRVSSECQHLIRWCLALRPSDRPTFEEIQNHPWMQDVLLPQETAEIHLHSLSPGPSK
Chain of Voltage-gated inwardly rectifying potassium channel KCNH2 (Q12809 whole entry): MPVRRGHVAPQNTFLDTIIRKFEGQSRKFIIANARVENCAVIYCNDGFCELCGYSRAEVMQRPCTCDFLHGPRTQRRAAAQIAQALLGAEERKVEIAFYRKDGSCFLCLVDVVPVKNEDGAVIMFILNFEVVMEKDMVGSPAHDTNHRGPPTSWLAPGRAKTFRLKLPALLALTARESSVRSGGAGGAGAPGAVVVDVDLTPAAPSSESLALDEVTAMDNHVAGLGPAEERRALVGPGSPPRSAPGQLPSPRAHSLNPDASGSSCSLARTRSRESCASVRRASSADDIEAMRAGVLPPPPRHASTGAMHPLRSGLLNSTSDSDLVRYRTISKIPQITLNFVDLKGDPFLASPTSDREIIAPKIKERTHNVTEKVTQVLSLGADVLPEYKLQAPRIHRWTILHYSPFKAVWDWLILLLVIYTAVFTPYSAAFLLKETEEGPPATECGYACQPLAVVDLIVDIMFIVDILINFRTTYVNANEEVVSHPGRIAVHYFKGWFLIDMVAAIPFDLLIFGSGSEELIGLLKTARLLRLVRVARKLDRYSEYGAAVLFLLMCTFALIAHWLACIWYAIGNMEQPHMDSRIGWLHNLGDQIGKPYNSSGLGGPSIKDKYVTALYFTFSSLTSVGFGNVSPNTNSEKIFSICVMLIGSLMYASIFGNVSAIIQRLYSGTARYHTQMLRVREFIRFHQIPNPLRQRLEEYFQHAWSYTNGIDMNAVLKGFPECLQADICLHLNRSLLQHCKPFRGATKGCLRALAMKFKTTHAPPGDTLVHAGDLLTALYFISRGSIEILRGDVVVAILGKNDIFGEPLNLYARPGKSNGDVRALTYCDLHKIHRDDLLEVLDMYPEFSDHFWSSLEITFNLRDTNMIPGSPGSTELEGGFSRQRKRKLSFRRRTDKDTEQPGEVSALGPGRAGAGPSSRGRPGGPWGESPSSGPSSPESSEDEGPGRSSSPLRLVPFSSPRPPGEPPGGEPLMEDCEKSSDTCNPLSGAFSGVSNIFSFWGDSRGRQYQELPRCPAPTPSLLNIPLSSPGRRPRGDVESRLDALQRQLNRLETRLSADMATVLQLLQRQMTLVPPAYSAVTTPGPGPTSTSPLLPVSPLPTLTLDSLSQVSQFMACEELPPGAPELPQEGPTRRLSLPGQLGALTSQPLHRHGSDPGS
Chain of Phosphatidylinositol 4-kinase beta (Q9UBF8 whole entry, canonical isoform): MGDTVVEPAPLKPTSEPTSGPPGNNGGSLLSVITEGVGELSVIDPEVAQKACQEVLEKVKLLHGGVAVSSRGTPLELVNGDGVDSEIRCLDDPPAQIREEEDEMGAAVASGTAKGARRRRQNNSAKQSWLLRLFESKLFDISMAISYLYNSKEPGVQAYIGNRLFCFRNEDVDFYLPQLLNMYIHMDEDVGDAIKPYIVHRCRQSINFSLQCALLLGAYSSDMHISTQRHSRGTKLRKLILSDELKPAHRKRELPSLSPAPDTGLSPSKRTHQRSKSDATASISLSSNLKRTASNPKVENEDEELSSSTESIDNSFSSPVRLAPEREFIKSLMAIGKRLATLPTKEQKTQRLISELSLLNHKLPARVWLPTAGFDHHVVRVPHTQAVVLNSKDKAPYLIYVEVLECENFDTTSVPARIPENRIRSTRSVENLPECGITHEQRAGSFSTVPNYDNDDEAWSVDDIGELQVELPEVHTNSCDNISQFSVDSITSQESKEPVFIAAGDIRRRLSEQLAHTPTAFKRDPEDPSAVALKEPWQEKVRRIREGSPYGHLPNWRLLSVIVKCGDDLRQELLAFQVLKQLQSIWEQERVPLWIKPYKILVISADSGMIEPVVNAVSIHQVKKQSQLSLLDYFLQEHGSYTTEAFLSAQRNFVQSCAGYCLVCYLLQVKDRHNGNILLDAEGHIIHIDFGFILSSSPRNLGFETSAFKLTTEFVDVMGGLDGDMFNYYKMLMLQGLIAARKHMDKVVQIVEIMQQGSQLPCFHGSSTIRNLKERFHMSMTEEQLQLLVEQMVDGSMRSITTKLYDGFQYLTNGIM
Chain of Glycogen synthase kinase-3 beta (P49841 whole entry): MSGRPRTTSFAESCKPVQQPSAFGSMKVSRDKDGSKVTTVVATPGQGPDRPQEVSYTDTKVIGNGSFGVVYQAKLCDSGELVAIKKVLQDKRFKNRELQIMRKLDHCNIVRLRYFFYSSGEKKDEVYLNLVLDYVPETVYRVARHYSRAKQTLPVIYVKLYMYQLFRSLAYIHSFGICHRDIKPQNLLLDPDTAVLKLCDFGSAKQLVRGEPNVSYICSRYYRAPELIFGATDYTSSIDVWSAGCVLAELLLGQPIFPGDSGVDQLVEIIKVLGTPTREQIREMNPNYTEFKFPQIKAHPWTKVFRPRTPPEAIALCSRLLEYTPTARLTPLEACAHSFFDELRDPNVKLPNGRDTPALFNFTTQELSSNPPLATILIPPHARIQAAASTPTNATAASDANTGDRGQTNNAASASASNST

C[C@H]1C[C@@H](c2ccncc2NC(=O)c2ccc(F)c(-c3c(F)cccc3F)n2)C[C@@H](N)[C@@H]1O
EC50 (cells): 0.91 µM
CLhep predicted at 0.5 h, 1 µM (in vitro [1]): 10 mL/min/kg
half-life at 0.5 h, 1 µM (in vitro [2]): 1.53 h
CLhep predicted at 0.5 h, 1 µM (in vitro [3]): 20 mL/min/kg

N[C@H]1CCC[C@@H](c2ccncc2NC(=O)c2ccc(F)c(-c3c(F)cccc3F)n2)C1
Ki [4]: < 0.003 µM
CLhep predicted at 0.5 h, 1 µM (in vitro [1]): 9 mL/min/kg
half-life at 0.5 h, 1 µM (in vitro [2]): 0.7 h
half-life at 0.5 h, 1 µM (in vitro [5]): 1.78 h
CLhep predicted at 0.5 h, 1 µM (in vitro [3]): 30 mL/min/kg
Ki [6]: < 0.001 µM

C[C@@H]1C[C@H](N)C[C@H](c2ccncc2NC(=O)c2ccc(F)c(-c3c(F)cccc3F)n2)C1 [LGH-447]
IC50 [7]: 4.9 µM
bioavailability (in vivo [8]): 84%
Vd (in vivo [9]): 6.4 L/kg
logD (physchem [10]): 1.1
IC50 [11]: 1.3 µM
Vd (in vivo [12]): 5.3 L/kg
Vd (in vivo [13]): 3.6 L/kg
pKa (physchem [14]): 4.2
IC50 [15]: > 9.1 µM
IC50 [16]: > 9.1 µM
bioavailability (in vivo [17]): 70%
IC50 [18]: > 9.1 µM
fraction unbound (in vitro [19]): 0.05
bioavailability (in vivo [20]): 71%
IC50 [21]: > 9.1 µM
IC50 [22]: 4.1 µM
solubility (physchem [23]): 4 mM (≈ 1760 µg/mL)
solubility (physchem [24]): > 45 mM
IC50 [25]: 12 µM
IC50 [26]: > 9.1 µM
fraction unbound at 24 h (in vivo [27]): 0.05
IC50 [28]: > 9.1 µM
IC50 [29]: > 9.1 µM
solubility (physchem [30]): 0.5 mM (≈ 220 µg/mL)
